According to PubChem BioAssay AID652104 (National Center for Advancing Translational Sciences (NCATS), 2013):
Screen size: about 410,000 compounds; about 7,200 (1.8%) were called active. The inconclusive results got no clear call from the source; some entries with a clear call stand among them for comparison. Calls follow the shape of the dose curve; as a rule, active = well fitted activation curve with a large enough effect; inconclusive = small, poorly fitted or top-dose-only effect, or another doubt; inactive = no such curve, though single readings can be large or run the other way. Potencies of inconclusive entries are left out as doubtful fits.

Assay: qHTS of TDP-43 Inhibitors; also: nearly all actives have a fitted effect of over 50% in size; as to growth rescue (activation): % of control where 0% means no effect
Conditions: TDP-43 expressing yeast growth rescue, BacTiter-Glo, 24 h; growth rescue (activation): at 46.1 µM (top of the series) unless noted
In short: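 Yeast expressing TDP-43 (pregrown in raffinose, seeded at OD600=0.02 in galactose medium) exposed to compounds 24 hr at 30 deg C. Growth read by BacTiter-Glo luminescence; rescue of toxicity appears as increased signal.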
Potency is read from the fitted curve at half-maximal effect; tags tell the direction and shape of the fitted curve.

Structure (SMILES) | Potency | growth rescue (activation)
Cc1ccc(CSc2cn(CC(=O)N3CCCC3)c3ccccc23)cc1 | active: 22.4 µM | –
O=C(Nc1cc(-c2nc3ccccc3o2)ccc1Cl)c1ccc(N2CCCCC2)c([N+](=O)[O-])c1 | – | inactive: 20.8%
Cc1cc(C)n2nc(SCc3ccc(C#N)cc3)nc2n1 | inconclusive [activator, single point] | –
CCCCCc1c(-c2ccccc2)ncn1CCc1ccccc1OC | inconclusive [activator, partial curve, poor fit] | –
CCN(C(=O)C1CCC(CNS(=O)(=O)c2cccc3nsnc23)CC1)c1ccc(C)c(C)c1 (stereo unspecified) | inconclusive [activator, single point] | –
COc1ccc(NC(=O)Nc2nnc(C)s2)cc1 | – | inactive: -2.61%
COc1cccc(NC(=S)NC(C)c2ccc(OC)c(OC)c2)c1 (stereo unspecified) | – | inactive: -3.04%
O=C(O)CC(NC(=S)NCc1ccccc1)C(=O)O (stereo unspecified) | inconclusive [activator, single point] | –
CCc1noc(C)c1C(=O)Nc1nc(-c2cccs2)cs1 | active: 12.6 µM | –
O=[N+]([O-])c1ccc2nc(C3CCCCC3)[nH]c2c1 | inconclusive [activator, partial curve] | –
S=C(NCCSCc1ccc(Cl)cc1)Nc1ccccc1 | active: 25.1 µM | –
Cc1noc(C)c1COc1cccc(C(=O)Nc2ccc(Br)cc2F)c1 | inconclusive [activator, single point] | –
FC(F)C(F)(F)Oc1cccc(Nc2nccn3c(-c4cccc5cccnc45)cnc23)c1 | inconclusive [activator, partial curve, poor fit] | –
O=C(Nc1ccc(Br)cc1)c1ccc(F)c(S(=O)(=O)NCc2cccs2)c1 | active: 20 µM | –
COC(=O)c1[nH]c2ccc(C)cc2c1NS(=O)(=O)c1ccc(F)cc1 | inconclusive [activator, partial curve, poor fit] | –
CCOc1cc(Br)ccc1S(=O)(=O)NCc1ccccc1 | inconclusive [activator, partial curve] | –
Cc1cc(C(F)(F)F)n2nc(-c3ccc(Br)cc3)cc2n1 | – | inactive: 5.32% [at 9.22 µM]
CC(C)N1CCN(c2ccc(OCC3COC(Cn4cncn4)(c4ccc(Cl)cc4Cl)O3)cc2)CC1 (stereo unspecified) | inconclusive [activator, single point] | –
COc1ccccc1N1CCN(C(=O)c2cccc(S(=O)(=O)N3CCCCCC3)c2)CC1 | inconclusive [activator, partial curve, poor fit] | –
CC(C)CCNC(=S)Nc1ccc(F)cc1 | inconclusive [activator, single point] | –
CCNc1nc(NC(C)C)nc(SCCOC(=O)c2ccccc2)n1 | active: 12.6 µM | –
S=C(Nc1ccc(Cl)c(Cl)c1)N1CCCC1 | active: 3.16 µM | –
Cc1cc(N/N=C/c2c(O)ccc3ccccc23)nc(-c2ccccc2O)n1 | inconclusive [activator, single point] | –
O=c1[nH][nH]c2c1[C@H](c1ccccc1)O[C@H](C1CCCCC1)C2 | active: 35.5 µM | –

Structure (SMILES) | Potency | growth rescue (activation)
Cc1ccc(Cn2c(C)c(C(=O)NCC(C)C)sc2=O)cc1 | inconclusive [activator, partial curve] | –
Cc1cccc(C(=O)Nc2ccc(NC(=O)CN3CCOCC3)cc2)c1 | – | inactive: -9.35%
O=C(N/N=C/c1cccc(NC(=O)c2ccc(Cl)cc2)c1)c1ccc(O)cc1 | – | inactive: -2.6%
Cc1ccnc2c(N3C(=O)C4C5c6ccccc6C(c6ccccc65)C4C3=O)cccc12 (stereo unspecified) | inconclusive [activator, partial curve] | –
COc1ccccc1N1CCN(C(=O)c2ccc3[nH]c4c(c3c2)CCCC4)CC1 | inconclusive [activator, single point] | –
O=[N+]([O-])c1cccc2c1ccc1ncccc12 | inconclusive [activator, single point] | –
CCc1cccc(NC(=O)CN2C(=O)COc3ccc(S(=O)(=O)Nc4ccccc4)cc32)c1 | – | inactive: 7.27%
COc1ccccc1Nc1cc(C(=O)NCCCN2CCOCC2)c2ccccc2n1 | inconclusive [activator, full curve, poor fit] | –
CN(c1ccccc1)S(=O)(=O)c1cc(C(=O)Nc2nc3ccccc3[nH]2)ccc1Cl | active: 15.8 µM | –
COc1ccc(OCC(=O)NCc2ccc3c(c2)CCN3C(=O)c2ccccc2)cc1 | active: 25.1 µM | –
COc1ccccc1N1CCN(c2ncnc3c2cnn3-c2cc(Cl)ccc2C)CC1 | inconclusive [activator, single point] | –
CCOC(=O)c1cnn2c(C)cc(-c3ccc(F)cc3)nc12 | – | inactive: 17.3%
CCOC(=O)c1c(COc2ccccc2)oc2ccc(O)cc12 | – | inactive: 19.2%
O=S(=O)(c1ccc(Br)s1)N1CCCCC1 | inconclusive [activator, single point] | –
COc1cc(/C=C/C(=O)OCC(=O)Nc2ccc3c(c2)OCO3)ccc1O | inconclusive [activator, partial curve, poor fit] | –
COc1ccc(N2CCN(C(=O)Cc3ccc(OC)c(OC)c3)CC2)cc1 | inconclusive [activator, single point] | –
CC1(C(=O)O)CCCN1C(=O)c1ccco1 (stereo unspecified) | inconclusive [activator, full curve] | –
CCc1ccc2nc(N(CCN(CC)CC)C(=O)c3ccco3)sc2c1 | – | inactive: -5.12%
Cc1ccc(S(=O)(=O)NC2c3cccc4cccc(c34)C2Sc2nc(C)cc(C)n2)cc1 (stereo unspecified) | inconclusive [activator, single point] | –
Cc1nc2c(-c3ccccc3)cnn2c(N2CCOCC2)c1C | inconclusive [activator, full curve] | –
CCNC(=S)N1CCC(C(=O)c2ccc(Cl)cc2)CC1 | inconclusive [activator, partial curve] | –
O=C(COC(=O)C1CC(=O)N(c2nc(-c3ccccc3)cs2)C1)c1ccccc1 (stereo unspecified) | inconclusive [activator, full curve] | –
COc1ccc(CCC(=O)OCC(=O)c2ccc(C)cc2)cc1 | inconclusive [activator, partial curve] | –
Cc1cccc(-n2ncc(C(=O)N3CCN(c4ccc(Cl)cc4)CC3)c2C2CCN(C(=O)OC(C)(C)C)CC2)c1 | inconclusive [activator, single point] | –

Structure (SMILES) | Potency | growth rescue (activation)
COC(=O)c1cn(C(=O)c2ccccc2Cl)c2ccccc12 | inconclusive [activator, single point] | –
O=C(NCCc1ccccc1)c1cccc2c(-c3cccnc3)coc12 | inconclusive [activator, single point] | –
COC(=O)C1=C(CS(=O)(=O)c2ccccc2)NC(=O)NC1c1ccc(OC)c(OC)c1 (stereo unspecified) | – | inactive: 12.3%
OC(c1ccccc1)(c1nc(-c2cccc(F)c2)cs1)C(F)(F)F (stereo unspecified) | – | inconclusive: -92.5% [activator]
Clc1cccc2sc(N3CCCC3)nc12 | active: 12.6 µM | –
CC(CCCCCCCCC(=O)O)N(CCO)C(=O)OC(C)(C)C (stereo unspecified) | inconclusive [activator, partial curve] | –
COc1ccc(C(=O)/C=C/c2ccc(OC3CSC3)cc2)cc1 | inconclusive [activator, partial curve] | –
Cc1cc(Cl)ccc1Nc1ncccc1C(N)=O | inconclusive [activator, single point] | –
COc1ccc2[nH]c(C(=O)O)c(NS(=O)(=O)c3ccc(Cl)s3)c2c1 | – | inactive: -1.6%
COC(=O)c1ccc(OCC2c3cc(OC)c(OC)cc3CCN2C(=O)Cc2ccc(OC)cc2)cc1 (stereo unspecified) | – | inactive: 18.7%
Cc1cc(C)n2c(SCc3ccc(Br)cc3)nnc2n1 | inconclusive [activator, single point] | –
O=C(CCl)Nc1cccc(S(=O)(=O)N2CCCCCC2)c1 | – | inconclusive: 32.4% [activator]
CC(C)(C)c1ccc(C(=O)OCCNC(=O)c2c(Cl)nc3ccccn23)cc1 | inconclusive [activator, single point] | –
O=C(Nc1ccn(Cc2ccc(Cl)cc2)n1)c1ccccc1 | inconclusive [activator, partial curve] | –
COc1ccc(C=O)cc1C1=CC(=O)C[C@H](c2ccc(Cl)cc2)C1 | active: 20 µM | –
Clc1cccc(/C=N/Nc2ncnc3ccccc23)c1 | inconclusive [activator, partial curve] | –
CCOc1ccc(C(=O)/C=C/c2cn(CC(O)CN3CCCCCC3)c3ccccc23)cc1 (stereo unspecified) | – | inactive: 6.38%
CC(=NNC(=O)c1cccc(S(=O)(=O)N2CCOCC2)c1)c1ccc(Cl)cc1 | – | inactive: -8.96%
CCOC(=O)C1=CCN(S(=O)(=O)c2ccccc2F)C1c1cccc(Br)c1 (stereo unspecified) | inconclusive [activator, single point] | –
Cc1cccc(C)c1Nc1c(-c2ccccc2F)nc2cccc(C)n12 | inconclusive [activator, partial curve, poor fit] | –
Cc1cccc(C(=O)Oc2cccc3c(O)cccc23)c1 | inconclusive [activator, single point] | –
CC(=O)CC1c2cc(F)ccc2C=C(c2ccsc2)N1c1ccc(-c2cccnc2)cc1 (stereo unspecified) | inconclusive [activator, partial curve] | –
CC1CCN(c2cc(N3CCOCC3)c(F)cc2[N+](=O)[O-])CC1 | inconclusive [activator, partial curve] | –
